Variants at the floor of the assay are shown more often than the library holds them.
B1: TPR 5TU (parent)
chain: GGAUCUUCUCGAUCUAACAAAAAAGACAAAUCUGCCACAAAGCUUGAGAGCAUCUUCGGAUGCAGAGGCGGCAGCCUUCGGUGGCGCGAUAGCGCCAACGUUCUCAACUAUGACACGCAAAACGCGUGCUCCGUUGAAUGGAGUUUAUCAUG

Variants of: B1
Test: polymerase ribozyme fitness, log enrichment relative to wild type (log ratio); higher = more active; in vitro selection for triplet polymerase activity
Procedure, shortened: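 One round of in vitro selection, in triplicate, was applied to PCR-built, transcribed mutant libraries of each subunit of a heterodimeric triplet polymerase ribozyme. The steps were annealing with a biotinylated primer, partner subunit and triplets, incubation frozen at −7 °C, gel excision of extended constructs, streptavidin-bead capture and RT-PCR. Fitness is the logarithm, base 2, of genotype enrichment over wild-type enrichment from inverse-variance-weighted replicate averages of Illumina-sequenced inputs and outputs, keeping genotypes with ≥10 input reads and ≥1 read per output.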

Variant	polymerase ribozyme fitness (log ratio)
A26C G68C C87A A89U C103A	≤ -4.2
A26C G68C G86A C93G	≤ -4.2
A26C G86U U104G C116G G133A	≤ -4.2
A26C G94A C131U	-1.51
A26C G100U	-4
A26C G117C	-2.51
A26C U31C C51U C79U U134G	≤ -4.2
A26C U31G C32G U45A G94U U101A C103G U148A	≤ -4.2
A26C U44A A49C G70A C87G C96U A113U G124U	≤ -4.2
A26C U44A G70U C85G U127C A138G	≤ -4.2
A26C U44A U55G G86A G88C	≤ -4.2
A26C U44G A91U U145C	≤ -4.2
A26C U45G C69U G83A G88A A113U G141C	≤ -4.2
A26C U53A C57A C96U U101G C108A A115U G133A A150G	≤ -4.2
A26C U53A U56A C114U	-3.79
A26C U53G G86A C87U	≤ -4.2
A26C U55A C75A G80C G94A C105A	≤ -4.2
A26C U61A A64U C85A A110C	≤ -4.2
A26C U78A G84A G126C C149G	≤ -4.2
A26C U144C	-2.23
A26G A28C C36U C54G C85G C108U G133C	≤ -4.2

Variant	polymerase ribozyme fitness (log ratio)
A26G A28U U44C C72U C85G C96U	≤ -4.2
A26G A28U U102G G128U A150U	≤ -4.2
A26G A29C C79A G100A	≤ -4.2
A26G A29C G50A U90G	≤ -4.2
A26G A30C A39C A47U C76U C93U A97G G133A G140U G141A	-4.02
A26G A30G G50U U78G C87G C99U	≤ -4.2
A26G A30U C32G U44G G94A A106C G143U	≤ -4.2
A26G A39U G48C A60C A73C G92U U104G U135G U148C	≤ -4.2
A26G A39U G50A C54G C69G A73C C93G G136C	≤ -4.2
A26G A40C C43U C57A U144G	≤ -4.2
A26G A40C C79U A98U C149G	≤ -4.2
A26G A40C G42C A52G C54U C75U A121C	≤ -4.2
A26G A40C U55A C96A G100C C103G	≤ -4.2
A26G A47G G58C G67C C93A G112A A113C	≤ -4.2
A26G A49C G88U A107C A121C G126U U146G	≤ -4.2
A26G A49U C85U A107G	≤ -4.2
A26G A49U G59A G74C	≤ -4.2
A26G A52C A91C	≤ -4.2
A26G A52C G59C A64C	≤ -4.2
A26G A52G G62U G74C C99A G112U G143U C149A	≤ -4.2
A26G A52U A137G U145G	≤ -4.2

Variant	polymerase ribozyme fitness (log ratio)
A26G A60C G65U C76G U139A A142C	≤ -4.2
A26G A60C U82G U101G C116G C125A A138G	≤ -4.2
A26G A66U C85A C95A G124C C131A	≤ -4.2
A26G A73U A137C A150G	≤ -4.2
A26G A73U C85A U151G	≤ -4.2
A26G C27G A40G C57U C85U C118U	-3.9
A26G C27G C87U U148A	≤ -4.2
A26G C27U A47G C54A U56G G86A	≤ -4.2
A26G C27U G84A U90G A142C G152C	≤ -4.2
A26G C32A G62U A66C C93U C95G C125A U148A	≤ -4.2
A26G C35A C79G G94C	≤ -4.2
A26G C35G C57A G81C C87G	≤ -4.2
A26G C35U A60G A122U	≤ -4.2
A26G C36G G141U	≤ -4.2
A26G C38A A60U A64C C76U	≤ -4.2
A26G C38A U53G C54G G86A C118G	≤ -4.2
A26G C38U C54G U55A	≤ -4.2
A26G C43U C123U	≤ -4.2
A26G C51U C96A A107U A121C C149G	≤ -4.2
A26G C54U G59U G81A G128C	≤ -4.2
A26G C57A C79A U82G C87G G92C G100A A106G C114G	≤ -4.2

Variant	polymerase ribozyme fitness (log ratio)
A26G C57A G65U G71A G88A G136U	≤ -4.2
A26G C57U C87A C114G C116U U134G	≤ -4.2
A26G C57U G58A C87A	≤ -4.2
A26G C63A G80A C85G C87G C114A A137U	≤ -4.2
A26G C69A C108U	≤ -4.2
A26G C69G A106C C108U	≤ -4.2
A26G C75A G81A G140A U148C	≤ -4.2
A26G C75U C96U	≤ -4.2
A26G C76A	-3.95
A26G C76U C99U U127A	≤ -4.2
A26G G42A A49G A52G C96U	≤ -4.2
A26G G42C C57A U134A A138U	≤ -4.2
A26G G42C C95U A150U	≤ -4.2
A26G G42U G48C G50U G84C C87G	≤ -4.2
A26G G46A G48C C51U G71C C103U A120G C149G	≤ -4.2
A26G G48A	≤ -4.2
A26G G50C C79U A150C	≤ -4.2
A26G G50U A52G G74A C76U	≤ -4.2
A26G G50U U55A C57U C103A G143A	≤ -4.2
A26G G50U U56A C57U C85U U90G U102G	≤ -4.2

Reference: the RNAGym collection of RNA variant scans (doi:10.1073/pnas.2313332121)
